# Laboratory results from the supplement of paper PMC4967469.
# Tests used:
# Test in all cases: Viability of human cancer cell lines after 72 h of drug (GDSC screen)
# GSK690693 = compound: CCn1c(-c2nonc2N)nc2c(C#CC(C)(C)O)ncc(OC[C@H]3CCCNC3)c21 [GSK690693]; conditions: top dose 10.24 µM; top dose inferred
# Procedure: (§1)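 Human cancer cell lines in 384-well plates, medium with 10% serum, drug for 72 h over a 256-fold dose range (nine 2-fold or five 4-fold steps up to the top dose). Adherent lines were fixed and stained with the nucleic acid dye Syto60, suspension lines read with resazurin; signal relative to control wells, capped at 0 and 100%. One two-parameter sigmoid per drug and line, fitted in a mixed model over all curves with the slope shared within a line.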
# UNC0638 = compound: COc1cc2c(NC3CCN(C(C)C)CC3)nc(C3CCCCC3)nc2cc1OCCCN1CCCC1 [UNC0638]
# Procedure: as §1
# SB-505124 = compound: Cc1cccc(-c2[nH]c(C(C)(C)C)nc2-c2ccc3c(c2)OCO3)n1 [SB-505124]; conditions: top dose 10 µM; top dose inferred
# Procedure: as §1
# PI-103 = compound: Oc1cccc(-c2nc(N3CCOCC3)c3oc4ncccc4c3n2)c1 [PI-103]; conditions: top dose 10.24 µM
# Procedure: as §1
# BX-795 = compound: O=C(NCCCNc1nc(Nc2cccc(NC(=O)N3CCCC3)c2)ncc1I)c1cccs1 [BX-795]; conditions: top dose 5 µM; top dose inferred
# Procedure: as §1
# [1] = top dose 20 µM, screen: GDSC drug entry 1236, top dose inferred
# [2] = top dose 40 µM, screen: GDSC drug entry 245
Cell Line,AUC (GSK690693),IC50 (GSK690693) [µM],AUC (UNC0638; [1]),IC50 (UNC0638; [1]) [µM],AUC (UNC0638; [2]),IC50 (UNC0638; [2]) [µM],AUC (SB-505124),IC50 (SB-505124) [µM],AUC (PI-103),IC50 (PI-103) [µM],AUC (BX-795),IC50 (BX-795) [µM]
"ML-1 (thyroid, adherent)",0.984,> 10.2,0.982,> 20,0.876,> 40,0.982,> 10,0.762,4.25,,
"MM1S (myeloma, suspension)",,,,,,,,,,,0.893,> 5
"NCI-H196 (small cell lung carcinoma, adherent)",0.988,> 10.2,0.829,13.2,0.717,10.7,0.987,> 10,0.838,7.38,,
"NCI-H929 (myeloma, suspension)",,,0.817,9.17,,,0.965,> 10,,,0.699,1.03
"NCI-H1299 (large cell lung carcinoma, adherent)",0.968,> 10.2,0.864,> 20,0.794,23.4,0.98,> 10,0.825,8.08,,
"NCI-H1573 (lung adenocarcinoma, adherent)",0.991,> 10.2,0.985,> 20,0.969,> 40,0.99,> 10,0.971,> 10.2,,
"NCI-H1793 (lung adenocarcinoma, adherent)",0.982,> 10.2,0.963,> 20,0.872,> 40,0.98,> 10,0.539,0.853,,
"NCI-H1915 (large cell lung carcinoma, adherent)",0.988,> 10.2,0.847,15.2,0.74,12.4,0.985,> 10,0.836,6.97,,
"NCI-H2066 (small cell lung carcinoma, adherent)",,,0.963,> 20,,,0.954,> 10,,,0.971,> 5
"NCI-H2170 (lung squamous cell carcinoma, adherent)",0.987,> 10.2,0.94,> 20,0.89,> 40,0.949,> 10,0.913,> 10.2,,
"NCI-H2228 (lung adenocarcinoma, adherent)",0.884,> 10.2,0.821,> 20,0.931,> 40,0.963,> 10,0.807,8.92,,
"PCI-38 (head and neck, adherent)",0.956,> 10.2,0.94,> 20,0.753,13.4,0.932,> 10,0.857,8.37,,
"PL18 (pancreas, adherent)",0.988,> 10.2,0.633,2.9,0.889,> 40,0.987,> 10,0.697,2.27,,
"RD (rhabdomyosarcoma, adherent)",0.965,> 10.2,0.959,> 20,0.843,32.5,0.982,> 10,0.347,0.231,,
"RT-112 (bladder, adherent)",0.908,> 10.2,0.819,12.6,0.87,> 40,0.983,> 10,0.368,0.269,,
"SN12C (kidney, adherent)",0.986,> 10.2,0.954,> 20,0.979,> 40,0.975,> 10,0.924,> 10.2,,
"SNU-398 (liver, adherent)",0.983,> 10.2,0.748,6.64,0.655,6.88,0.953,> 10,0.551,0.889,,
"SNU-475 (liver, adherent)",0.957,> 10.2,,,0.669,6.93,,,0.924,> 10.2,,
"SNU-1040 (large intestine, adherent)",0.633,1.7,0.921,> 20,0.76,18.7,0.972,> 10,0.646,1.87,,
"SW156 (kidney, adherent)",0.922,> 10.2,0.979,> 20,0.938,> 40,0.914,> 10,0.934,> 10.2,,
"SW837 (large intestine, adherent)",0.979,> 10.2,0.961,> 20,0.888,> 40,0.969,> 10,0.745,4.13,,
"SW1088 (glioma, adherent)",0.943,> 10.2,0.904,> 20,0.915,> 40,0.943,> 10,0.791,6.2,,
"SW1116 (large intestine, adherent)",0.984,> 10.2,0.975,> 20,0.949,> 40,0.982,> 10,0.966,> 10.2,,
"SW1463 (large intestine, adherent)",0.978,> 10.2,0.969,> 20,0.974,> 40,0.975,> 10,0.968,> 10.2,,
"T-24 (bladder, adherent)",0.98,> 10.2,0.987,> 20,0.754,13,0.878,9.36,0.842,6.69,,
"U-2-OS (osteosarcoma, adherent)",0.976,> 10.2,0.777,8.75,0.855,36.4,0.963,> 10,0.921,> 10.2,,
"UACC-812 (breast, adherent)",0.957,> 10.2,,,0.883,> 40,,,0.566,0.96,,
"YMB-1-E (breast, adherent)",0.605,1.38,,,0.764,19.9,,,0.938,> 10.2,,

# Lines with a small IC50 respond at low doses; a fit beyond the top or the lowest dose is shown as a bound at that dose. For AUC the same curve is integrated over the 256-fold range of doses and scaled to a fraction; it is 1 without any effect and falls as sensitivity rises. For part of these data: The top dose, if marked as inferred, is not printed in the source and was worked back from the curve model. For part of these data: Drugs with an entry number were screened twice under separate entries, and the two screens often disagree.
